Reference: US10842969B2, “Systems and methods of treating malacia by local delivery of hydrogel to augment tissue” (priority 2013, dated 2020)
Read-outs that look alike come from different tables or passages of the source.

Experiments:
[1] = system: bronchial adventitia of Yorkshire pigs; experiment: GLP 28-day study: saline or paclitaxel injected to bronchial adventitia with Blowfish catheter; tolerability and histopathology
[2] = system: bronchial wall
[3] = system: porcine bronchial adventitia; conditions: pig, in vivo
[4] = system: cancer cell lines such as H358 and H460; conditions: cited from earlier work
[5] = system: porcine bronchial adventitia; experiment: Histopathology one week after paclitaxel delivery to porcine bronchial adventitia in vivo
[6] = in vivo; conditions: pig, bronchial tissue, other: local injection to the bronchial adventitia
[7] = 135 mg/m^2 dose administered over 24 hours; package insert; cited from earlier work
[8] = set-up: species or system Yorkshire pigs; conditions: Yorkshire, pig, in vivo
[9] = in vivo; conditions: pig, plasma; for concentration at 7 days: other: local injection, per site
[10] = 7 days, 0.05 mg and 0.5 mg per injection site
[11] = 7 days, 2.5 mg/mL, 5 mg per injection site

In the case of `CC(=O)O[C@H]1C(=O)[C@@]2(C)[C@H]([C@H](OC(=O)c3ccccc3)[C@]3(O)C[C@H](OC(=O)[C@H](O)[C@@H](NC(=O)c4ccccc4)c4ccccc4)C(C)=C1C3(C)C)[C@]1(OC(C)=O)CO[C@@H]1C[C@@H]2O` [paclitaxel], the “reaction to PTX or excipient (Cremophor EL)” value ([1]; 1.5 mg/mL PTX infusions) is reported as “transient reaction to PTX or excipient (Cremophor EL) for a single animal”, the “inflammation associated with treatment” value ([1]; 28 days) is reported as “absent to negligible” and the “injury (histology)” value ([1]; 28 days, Treated and Control groups comparable) is reported as “absent to negligible”. The epithelial loss ([1]; 28 days, across groups) was “negligible”, the fibrin/luminal hemorrhage/thrombus ([1]; 28 days, across groups) was “absent to negligible” and the local tissue reaction ([1]; 28 days, all groups) was “mild to negligible”. For the same compound, the “local tissue responses, microscopic evaluation” value ([1]; after 28 days, low (0.5 mg/mL) and high (1.5 mg/mL) PTX groups vs saline) was “favorable local tissue responses”, the “abnormalities in clinical observations, body weights, clinical pathology” value ([1]; both PTX groups) was “no other infusion or PTX related abnormalities” and the “safety of injection into the bronchial adventitia” value ([2]; 0.5 mg/mL dose, balloon mounted injection needle) was “safe”. The “safety of injections into the bronchial wall” value ([2]; 1.5 mg/mL dose or less) was “safe”, the “systemic or local parenchymal toxicity” value ([2]; high local concentrations within the wall of the bronchus) was “no observable systemic or local parechymal toxicity” and the systemic toxicities [3] was “no observed systemic toxicities”. For the same compound, the “drug level in bronchial adventitia” value (7-day study, tissue concentration data) was “sufficient drug in the bronchial adventitia at cancer inhibiting levels”, the “paclitaxel presence in bronchial tissue” value (after 28 days, 0.5 and 1.5 mg/mL groups) was “present in bronchial tissue” and the “time to which tissue levels are maintained at cancer-inhibiting levels” value (generic paclitaxel, study conclusions) was 7 days. The “concentration effective in suppressing cancer cell lines” value ([4]; if present for 96 hours, literature) was 10 to 30 nM, the “concentration effective in suppressing cancer cell lines” value ([4]; various studies in the literature) was “around 20 nM” and the local adverse reactions ([5]; 2 mL at 2.5 mg/mL, 5 mg per site) was “local adverse reactions that could be considered dose-limiting toxicities”. For the same compound, the epithelial loss [5, 10] was “minimal”, the evidence of damage [5, 10] was “not associated with evidence of damage” and the “luminal thrombus, bronchial injury” value [5, 10] was “no evidence of luminal thrombus bronchial injury”. For the same compound, the “lymphocytic response / inflammation” value [5, 10] was “lymphocytic response and mild inflammation”, the “inflammation associated with necrosis” value [5, 11] was “moderate” and the “luminal thrombus and epithelial loss” value [5, 11] was “overall minimal”. For the same compound, the mean bronchial injury [5, 11] was “moderate”, the necrosis ([5]; 7 days, highest dose 2.5 mg/mL, 5 mg per injection site) was “multifocal marked subacute necrosis of bronchial cartilage, peribronchial tissue and pulmonary parenchyma” and the concentration at 7 days ([6]; 0.5 mg/site, average paclitaxel concentration in bronchial tissue, mid dose group, […]) was 86 ± 33 nM. The concentration at 7 days ([6]; 5 mg/site, average paclitaxel concentration in bronchial tissue, high dose group, […]) was 94 ± 67 nM, the concentration at 7 days ([6]; 6.5 mg total paclitaxel, average paclitaxel concentration in bronchial tissue, mid dose group, […]) was 86 ± 33 nM and the concentration at 7 days ([6]; 6.5 mg total paclitaxel, range of paclitaxel concentration in bronchial tissue, mid dose group) was 26.7 to 122 nM. For the same compound, the concentration at 7 days ([6]; average paclitaxel concentration in bronchial tissue, high dose group, […]) was 94 ± 67 nM, the concentration at 7 days ([6]; range of paclitaxel concentration in bronchial tissue, high dose group) was 47.1 to 141 nM and the “AUC(0-∞)” value [7] was 6,300 ng*h/mL. The “time out to which PTX was measured in plasma” value [8] was 120 h, the AUC(0-t) ([9]; 0.65 mg) was 18.5 ng·h/mL and the AUC(0-t) ([9]; 6.5 mg) was 256 ng·h/mL. The AUC(0-t) ([9]; 25 mg) was 740 ng·h/mL, the concentration at 7 days ([9]; 0.65 mg) was less than 0.03 ng/mL and the concentration at 7 days ([9]; 6.5 mg) was less than 0.03 ng/mL. For the same compound, the concentration at 7 days ([9]; 25 mg) was 0.124 ng/mL.
